Measured values as given in the supplement of paper PMC3334620.
Over roughly 33,000 sequences, “E-score (-0.5 to 0.5)” has its median near -0.012; the highest 2% begin near 0.27. The list shows a part of the results.

These sequences were tested against T1, Vhr1 (UniProt P40522) (assay: PBM E-score (8-mer binding enrichment) (E-score (-0.5 to 0.5)); higher = stronger / more preferred TF binding; most listed sequences are background and not binding sites). Details: protein concentration: 200 nM; construct: GST-full length.
T1 sequence: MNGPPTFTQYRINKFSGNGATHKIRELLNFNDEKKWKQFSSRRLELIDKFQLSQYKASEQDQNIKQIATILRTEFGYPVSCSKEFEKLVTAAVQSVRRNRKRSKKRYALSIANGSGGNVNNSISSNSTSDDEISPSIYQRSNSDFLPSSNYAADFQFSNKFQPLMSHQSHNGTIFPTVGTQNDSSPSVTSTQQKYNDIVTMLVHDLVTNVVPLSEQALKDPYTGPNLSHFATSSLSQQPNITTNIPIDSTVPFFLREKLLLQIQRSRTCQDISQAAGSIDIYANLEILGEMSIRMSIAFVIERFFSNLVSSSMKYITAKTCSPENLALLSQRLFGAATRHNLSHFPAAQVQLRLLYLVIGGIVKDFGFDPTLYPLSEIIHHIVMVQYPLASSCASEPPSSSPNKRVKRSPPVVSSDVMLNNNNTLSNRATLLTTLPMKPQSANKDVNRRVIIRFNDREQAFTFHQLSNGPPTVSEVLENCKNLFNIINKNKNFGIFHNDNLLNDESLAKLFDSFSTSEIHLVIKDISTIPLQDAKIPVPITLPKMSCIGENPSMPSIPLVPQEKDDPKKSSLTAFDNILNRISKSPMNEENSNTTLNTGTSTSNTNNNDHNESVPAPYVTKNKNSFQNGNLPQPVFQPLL
Protocol: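 Universal 'all 10-mer' protein binding microarrays (Agilent AMADID 015681) probed with GST-tagged S. cerevisiae TFs (full-length or DBD) made by in vitro transcription/translation (PURExpress), about 100-200 nM. Bound TF was detected with fluorescent anti-GST. Each ungapped 8-mer (which stands for itself and its reverse complement) is scored by the PBM enrichment score (E-score), a modified Wilcoxon-Mann-Whitney statistic from -0.5 to +0.5, computed with the Universal PBM Analysis Suite. Scale: above 0.35 generally sequence-specific binding.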

Sequence	PBM E-score
CGAGCCTA	-0.0407
GTCACCAA	0.166
AATGGGGA	-0.178
TGGGGGAA	-0.257
CCACGGTA	-0.0101
ACGCGCTG	0.152
GACACAAC	0.0166
AGCTCGTG	0.145
GCCTCCAC	-0.261
ACCGATCC	0.00526
CTGCACGA	0.169
AAACGTTT	-0.344
CCTTTAGC	-0.354
CATACCGC	0.156
TTGATCAA	0.082
ACGGACGA	0.225
CAGTAACA	-0.0965
CCAAGCCC	-0.207
GTTGCGGA	-0.172
CTTTTATA	-0.286
TACAACCA	0.154
ACGAATCC	0.117
AGCTCTCC	-0.191
CCGCAGTC	0.274
CCTTACAG	-0.288

Sequence	PBM E-score
AGAGAGCC	-0.21
ATGTTTTA	-0.227
AGCATCTG	-0.00281
TAACCTGA	0.00042
AGGGTTAT	-0.00112
CCATGAGA	0.191
GCTATGTA	-0.0404
AATATGGC	-0.123
AGTGCACA	0.0902
CAAAATGC	-0.104
AGCCTGTC	0.177
ATTCTACA	0.0873
AAATTGGG	-0.19
AGAGGGCC	-0.166
TACTTAGA	-0.0792
ACCAGGCA	-0.0327
CTAACGCC	-0.0753
GTGGGATA	0.15
ATCAGTGG	0.122
ACATTGGG	-0.206
TAGGGGCA	-0.216
CGGATGAA	-0.0447
CTTTAAAC	-0.285
GCTCTTCA	-0.147
CATACTCA	0.285

Sequence	PBM E-score
AACCCGGC	-0.189
AGTCGGGA	0.205
GACTGCGC	0.103
CCATAGCA	0.0998
ATAAAACA	-0.125
ACCTCGTA	0.112
CGCCACAC	0.196
AATGGCGG	0.0431
CTCAAACC	0.0714
ATGCTGCG	0.0386
CACAGTAG	0.00925
CCATCTTA	-0.00123
CGAGGGAG	0.0601
ACTAGTTG	-0.00362
GTACAGAC	-0.0665
AATCGGTC	-0.00595
CCCTCTGC	-0.364
CCGATACA	-0.056
ATGTAGAG	-0.231
ATCCATCG	0.0134
CCCTCTAG	-0.0547
CACAATGA	0.286
CAAAATTG	-0.0949
AAGTCTGG	-0.102
ATCATATG	0.174

Sequence	PBM E-score
CAGCAGCA	0.0586
AGTCTGCA	-0.119
GATAACGA	0.0151
GACTCGCA	0.319
CTTCCAAA	-0.31
CGGAGCTC	-0.286
AACAAATG	-0.0364
CCTTTTAC	0.0295
ACTTAGAT	-0.0097
GGACATAC	-0.00803
ATGCAGAC	0.0179
TCAGGCAA	0.0347
CCCATGAA	0.0105
CAGCTAGA	0.0392
AACGTTTG	-0.0879
CATAGAAC	0.0546
AGATAACA	0.0447
GTGCTCTA	-0.0581
CCCGCGAA	0.137
ATCGTAAG	-0.0907
ACTGCCGC	0.101
AGTAAAAC	-0.114
CGTGCATC	-0.0587
GAAGATCC	-0.239
GCAGGACA	-0.153

Sequence	PBM E-score
CCTCGCTA	-0.23
CTGTTACA	0.0932
ATATAAGA	0.0901
ACCCGTTA	0.0104
AAATAAGA	-0.183
AAGCGCTG	-0.0816
CTCAAGGA	0.0113
TCAGCCGA	0.187
ACCCATAG	0.0609
AAGACCTC	-0.198
AGTGATAA	-0.134
AAGATTCG	0.0242
GCTTAAGA	-0.221
AAAGCAAG	0.00927
AGCTAACG	-0.237
CAATGCTA	-0.073
CGTTTGCA	-0.0884
CCGCTCGC	0.0504
CAAGGAAC	-0.0217
AGGCCAAA	-0.106
CTGTCGAA	-0.218
AGATTGTC	-0.0716
GGAGTCAA	0.354
ACCAGAGA	0.0722
GGCGAATA	0.0713

Sequence	PBM E-score
GCACTAAA	-0.112
GTTAACGA	-0.043
CAGCTGGA	0.111
ACTGGACG	-0.113
CTATCACC	-0.0622
AGATCCCA	-0.149
AGACGCTC	-0.234
CTTCTTGA	-0.0291
CTTTACAA	-0.115
AAATACGT	-0.0922
CTCTGCGA	0.0491
CTCGTTAC	-0.00761
TATGTCGA	-0.0171
AAGGCTCC	-0.172
CCGACCCC	-0.135
CTTGTCTA	-0.159
AACGAACG	-0.0276
AGGACAGG	-0.267
CAAAAATG	-0.0171
AAAGGTTG	-0.178
CCTGACGC	-0.197
AACTATGG	-0.0595
GCTAGGCC	-0.125
AGTATTAT	-0.132
AGAACTTC	-0.182

Sequence	PBM E-score
CTATTTGA	-0.122
TAATGTCA	-0.0164
GAAGATAC	0.00993
CCCACCCA	0.263
AACTAGGA	-0.208
CAGCGTTA	-0.084
TAAATAAA	-0.149
CGGACTTA	-0.189
GACAGGTC	-0.162
GCAGGCGA	0.0554
CATCTACC	0.188
ATAGTGCG	0.128
AACACGGA	0.2
ACTAAGTA	0.0363
AAGGGCGC	-0.0838
CCGGCCAC	-0.189
AGGTATGC	-0.0105
AACTAGTG	-0.128
CGTCCGAG	-0.103
CAATCCTA	-0.132
AGTCGGGG	0.248
AGACCTAG	-0.00186
